In all, about 33,000 sequences were measured (“E-score (-0.5 to 0.5)”: median about -0.016, highest 2% from about 0.32 on). Some of the results follow.
What follows are sequences tested against T1, Stp1 (UniProt B3LFK1) (assay: PBM E-score (8-mer binding enrichment) (E-score (-0.5 to 0.5)); higher = stronger / more preferred TF binding; most listed sequences are background and not binding sites). Settings: protein concentration: 200 nM; construct: GST-full length.
T1 sequence: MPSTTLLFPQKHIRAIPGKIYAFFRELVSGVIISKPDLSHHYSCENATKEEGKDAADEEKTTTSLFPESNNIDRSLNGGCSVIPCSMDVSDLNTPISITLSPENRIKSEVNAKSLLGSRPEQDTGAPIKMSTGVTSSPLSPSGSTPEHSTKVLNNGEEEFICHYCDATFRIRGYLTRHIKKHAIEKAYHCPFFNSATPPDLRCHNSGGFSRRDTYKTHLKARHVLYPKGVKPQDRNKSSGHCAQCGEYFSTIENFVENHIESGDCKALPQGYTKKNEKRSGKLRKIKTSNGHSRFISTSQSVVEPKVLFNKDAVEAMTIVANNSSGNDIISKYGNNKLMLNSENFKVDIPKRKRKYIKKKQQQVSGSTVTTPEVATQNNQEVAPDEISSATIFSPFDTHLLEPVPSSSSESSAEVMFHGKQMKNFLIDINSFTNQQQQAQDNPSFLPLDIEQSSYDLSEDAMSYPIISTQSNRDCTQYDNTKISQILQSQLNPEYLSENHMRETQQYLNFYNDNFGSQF
In short: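 Yeast transcription factors carrying a GST tag, as full-length proteins or DNA-binding domains, were produced by PURExpress in vitro transcription/translation. About 100-200 nM protein was applied to universal all-10-mer Agilent arrays, double-stranded by primer extension on fresh or once-stripped slides. Bound protein was detected with fluorescent anti-GST, and scans were normalised with masliner. The Universal PBM Analysis Suite gave each ungapped eight-base word, pooled with its reverse complement, an E-score, a modified Wilcoxon-Mann-Whitney statistic.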

| Sequence | PBM E-score |
| --- | --- |
| AAGAGCCG | 0.336 |
| GGGCACGA | 0.133 |
| CGGTCCAC | -0.119 |
| GACTTATC | -0.216 |
| CACTTGAC | -0.0949 |
| AGCTACTA | -0.0111 |
| CGGTTGAA | 0.106 |
| AGAGACGC | -0.034 |
| CTAGAGCA | -0.148 |
| ATCTACTC | 0.0719 |
| ACGCCGTG | 0.485 |
| ACTGTAAT | 0.0123 |
| GTACAGGA | -0.0206 |
| ATTCTCAC | 0.0144 |
| ATCGGAGG | -0.198 |
| ACATGCGG | 0.311 |
| AGTGGAGG | -0.205 |
| GCTATGCA | -0.156 |
| CGACGATC | -0.00079 |
| CACAAGCC | 0.0882 |
| CCCATTTA | 0.149 |
| CGCGACAA | 0.247 |
| AGCCACAT | 0.163 |
| AACAGTGT | -0.102 |
| CCACATAA | 0.15 |

| Sequence | PBM E-score |
| --- | --- |
| CGGCGCAA | 0.422 |
| CCTCTCGC | -0.228 |
| ATCGCAAT | 0.0775 |
| TAATATTA | 0.263 |
| AGCATAGA | -0.00514 |
| ATGCCCGA | -0.323 |
| CTCACTTC | -0.296 |
| GATTTGGC | 0.0165 |
| ACGTCACT | 0.00118 |
| ATGGGGTC | -0.216 |
| TGAGGTAA | -0.0382 |
| CGTAAACC | -0.0814 |
| CTCGGATA | 0.102 |
| GCTTAAGC | -0.0752 |
| TAGACCTA | -0.157 |
| CGTCAAGA | -0.102 |
| GCGCGAGA | 0.107 |
| CTTCTTTC | -0.16 |
| GAAGTCTC | -0.302 |
| CGGAAACA | -0.0866 |
| ACGAACGT | 0.03 |
| CATAGACG | 0.023 |
| GATACACC | 0.0838 |
| AGGCCGGA | -0.155 |
| ATGATCAT | 0.17 |

| Sequence | PBM E-score |
| --- | --- |
| CGAGGGCC | -0.151 |
| AAAGGAGG | -0.258 |
| CAATAATC | -0.0393 |
| ATGGTAAT | 0.0391 |
| AGATCGTA | -0.171 |
| AACCATGG | 0.0731 |
| AGCCACGG | 0.153 |
| CGTACCAG | -0.01 |
| AGCCGTCA | 0.119 |
| TTGGACAA | -0.137 |
| ATGTACAT | 0.128 |
| AAACCTGA | 0.0317 |
| ACTGAAGG | -0.195 |
| GCGCTTGA | 0.115 |
| CTAGGTGA | -0.201 |
| ACGCACGC | 0.265 |
| CGTAGCCA | 0.0118 |
| CAGTGCAG | -0.199 |
| GGCAGAAC | 0.0544 |
| CTTGGTAA | 0.056 |
| CGGTTGGC | 0.163 |
| GAATCGTC | -0.0739 |
| AATATAAA | 0.221 |
| GACATCCC | -0.143 |
| AGTCTAGC | -0.293 |

| Sequence | PBM E-score |
| --- | --- |
| ATATTACA | 0.151 |
| CCAGAGGG | -0.19 |
| ATCTTTGG | -0.101 |
| GATCCTAA | -0.164 |
| CTCAACAA | 0.162 |
| ATTCGAGG | -0.176 |
| GATCGGGC | -0.0961 |
| CCACGAGC | -0.188 |
| ACTTTTAA | 0.0475 |
| AGTTTCCC | -0.0616 |
| CGCGAAGA | -0.0216 |
| AAAGCCAA | 0.0958 |
| CCCTGAAA | 0.00197 |
| CCTGTAAA | -0.2 |
| AGATATGG | 0.0188 |
| ACTCTCGC | -0.206 |
| AGGAACGA | -0.123 |
| ACTCAGCT | -0.0912 |
| ATCTGCAA | -0.145 |
| CCGACTGC | -0.159 |
| ACTGCGGA | 0.0949 |
| ACCGCGCT | 0.077 |
| AGACCCAC | -0.114 |
| ATTTTAGA | -0.0553 |
| GGTCCAAA | -0.139 |

| Sequence | PBM E-score |
| --- | --- |
| GCAGACAA | 0.0153 |
| AGGAGGTA | -0.269 |
| AGCACGCC | 0.201 |
| CAGACTTC | -0.243 |
| CCGCTTCA | 0.134 |
| AGAGAGAT | -0.00376 |
| GGCCCGAA | -0.0919 |
| ATGGGTTA | -0.00335 |
| ATCCTGAC | -0.0195 |
| AACAGCCT | -0.118 |
| AGCACTGA | -0.127 |
| ACGTTATC | -0.18 |
| AGACCGAC | -0.14 |
| GCCACCGA | -0.0468 |
| ATATTTTA | 0.106 |
| TCTTGCAA | 0.214 |
| CGAGTATA | -0.0563 |
| ACATATGC | -0.203 |
| CGCTAACA | 0.0815 |
| CGAAATCC | 0.0318 |
| TGGAGTAA | 0.135 |
| CCCAGGGA | -0.266 |
| AGTTTATA | 0.153 |
| CCCATAAC | -0.0623 |
| ACCCCATC | -0.246 |

| Sequence | PBM E-score |
| --- | --- |
| CATGGACC | -0.0645 |
| ACAGTTGA | -0.122 |
| ACTGCGCA | 0.0214 |
| AATTACTG | -0.00125 |
| AGGTAAAG | 0.136 |
| ATCAGTAG | -0.0596 |
| ATCCGACC | -0.00026 |
| AAGTATAT | 0.181 |
| ACTTGCGA | 0.107 |
| ACAAGCCC | -0.0425 |
| CCGGACCA | -0.0686 |
| CCATGTCG | -0.152 |
| AGCTTCCG | -0.00824 |
| CGAATTAA | 0.177 |
| AAACGTGC | -0.0181 |
| ATGGCGTC | 0.223 |
| GTATACAC | 0.12 |
| CCTGAACC | -0.098 |
| AGCCGGAG | 0.0308 |
| AGGATCGA | -0.124 |
| ACAGGCAT | 0.0877 |
| CTTAGTGC | 0.161 |
| GGGGACAC | -0.338 |
| CCTTGGAC | -0.103 |
| AGCAAGCG | -0.131 |

| Sequence | PBM E-score |
| --- | --- |
| GAAGGCAC | 0.368 |
| GGCAGCCC | -0.0258 |
| CCATGTCA | -0.125 |
| ATTCCGTC | -0.191 |
| GTGTCCGA | -0.0597 |
| AAGACCTT | -0.0467 |
| TGTCCAAA | 0.115 |
| GTTGCGCA | -0.0876 |
| CTTGGAAA | 0.0699 |
| GTTAAAAA | 0.0582 |
| ATCAATTC | 0.0276 |
| CCCGCTTC | -0.201 |
| CCAGCGAG | -0.297 |
| ACCAGCCT | -0.245 |
| GCTTGTCC | -0.0445 |
| AAGCCTAC | -0.0136 |
| AGGAGGAT | -0.107 |
| GGGGGTGA | -0.301 |
| AACCCACT | 0.00826 |
| CACCGGGC | -0.117 |
| AGGTATAG | -0.244 |
| ATCCGAGA | -0.0156 |

Source: the supplement of paper PMC3334620
